From the supplement of paper PMC11417369
± gives the standard deviation of the averaged measurements. The list shows a part of the results.

Tested on: PfAP2-I AP2 domain 3 (GST-tagged)
Assay: gcPBM binding intensity (ln(normalized median fluorescence intensity)); higher = stronger DNA binding
In short: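 An Agilent 4 × 180k array of primer-extended double-stranded 36-bp intergenic genomic probes, with negative controls, was incubated for 1 h with GST-tagged P. falciparum DNA-binding domains expressed in E. coli. Alexa488 anti-GST antibody detected bound protein, scanned at 488 nm. Binding intensity is the highest Masliner-normalised natural-log median intensity across replicate spots of either probe orientation.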

Sequence | gcPBM binding intensity (ln)
ATTTATATTTAATATACACACATTATTTTTTTATAT [CACACA_site574] | 7.88 ± 0.54
AGAGTACAAGTAAATACACACATATATATGAAAATA [CACACA_site1079] | 7.82 ± 0.55
CACATATATACACATACACACACACCCATACACCCA [CACACA_site8505] | 8.28 ± 0.12
TTTACATTTTAGGAAGTGCATATAATAAATACTATC | 9.89 ± 0.21
TACATAAATACATACACACACATATAACCAATGTAG [CACACA_site5243] | 7.91 ± 0.4
TATAATATGACAAGAAGTACATATATTTACATATAT [XGTACX_site1571] | 7.54 ± 0.29
ATATAATATTTTAGAGTGCACCGATAACAATAAATA [GTGCAC_site9754] | 10.4 ± 0.17
AAAAGATAAAAAGAAGTGCATAATAGGAACAAATAT [GTGCAC_site9717] | 10.7 ± 0.24
TATATGTGGGTTTTTTTTATGTGTTTTTCTTTTTTT [CACACA_negctrl_site936] | 7.97 ± 0.49
CATTTCATTAATAAATGTACTTGTGAAGAGAAAAAG [XGTACX_site3115] | 7.89 ± 0.56
ACAAAATTTACAAAATGTACAAAATATACAAAATGT [XGTACX_site3543] | 7.61 ± 0.5
TGTTATTCTGCATATACACACAAATAACAATTTAAA [CACACA_site6943] | 8.43 ± 0.18
TAAGATATAAAAAATGTGCACATTAAAGTATTAATT | 9.46 ± 0.45
TCTTATGATGGAATGTTAAATATTACATTTTGTTTA [TGCATGCA_negctrl_site503] | 7.32 ± 0.44
TTTATATAGAAACACACACACAAAAAAAAAAAAAAA [CACACA_site2646] | 8.11 ± 0.54
TTACAAAAAAAAAGGCGCGGATGGGGGCAATAGCAA [CACACA_negctrl_site238] | 9.38 ± 0.35
CAAAAAAAAAAAAAAACACACATTAAATTATAAAGA [CACACA_site2613] | 7.67 ± 0.32
TAATGTTTCAAAATTTAATATACTACAAATATTATA [TGCATGCA_negctrl_site336] | 7.17 ± 0.42
ATGAACATCCAATATACACACATATATATTTATATT [CACACA_site829] | 7.86 ± 0.65
TTCTACATGAAGTTATAAATTAATATTTTAATTTAT [XGTACX_negctrl_site134] | 7.24 ± 0.42
AATAAATAAATAAGTACACACATATAAATATAAATA [CACACA_site6271] | 7.91 ± 0.25
TACTTTATTTTTTATACACACACAATATGTATATAT [CACACA_site9184] | 8.05 ± 0.58

Sequence | gcPBM binding intensity (ln)
GTATTTCTTTAATATACACACACCAAAACAAAAAAA [CACACA_site579] | 8.13 ± 0.49
ATATATATATATATATATATAATAAAAGATCATTTA [XGTACX_negctrl_site371] | 9.4 ± 0.73
ATAATAAAAAGAAAAAGTACAAATGATTATGTTTGA [XGTACX_site3615] | 8.11 ± 0.81
CAAGTATTATATTGCGCATGCAAAGAAGGACACAAA [TGCATGCA_site1024] | 8.62 ± 0.47
TTATCTAGTACATACATACACACAACCATGTTATGA [CACACA_site3988] | 7.91 ± 0.39
TTACTTTTTTTTTTATGTACTTATATTTTTTACACT [XGTACX_site3503] | 8.17 ± 0.37
TATGAATACATTTGTTGTACTTAAATTTCCTTTATT [XGTACX_site5374] | 7.62 ± 0.52
AAATAATTTATGCATACACACATATATATATATATA [CACACA_site4020] | 9.52 ± 0.58
TATAAATATCTGAATTGTACAGGTGAAAAAAAAAAT [XGTACX_site1867] | 8.04 ± 0.62
TTTTTTATTATTATTATTTTTTATGTATAATAATGT [CACACA_negctrl_site631] | 7.59 ± 0.45
TAGATATATAAATACACACACATACACAAAAAAAAA [CACACA_site7652] | 8.21 ± 0.45
GTACAATCATATACTACATGCAGTTTTTTTTATTGA [TGCATGCA_site230] | 8.01 ± 0.62
AAATAAATACATAATACATGCATATTTAATATATAG [TGCATGCA_site135] | 7.93 ± 0.25
TTTTCTTTTTCTTGTACACACATAATATGGATGAAA [CACACA_site808] | 8.06 ± 0.42
AATTTTTTTTAATGATGTACTTTTTGAAAATAAACT [XGTACX_site4221] | 7.66 ± 0.5
ATATATATATATATTTATTCATATATTTTTTGTCTT [TGCATGCA_negctrl_site58] | 9.35 ± 0.57
TTTTTATTTTTTCAGTGTACATTTAAATTATCTTAT [XGTACX_site3905] | 8.16 ± 0.54
TAAAGAAACGCATCGACGCACACTACAAAATAAAAA [CACACA_site1348] | 8.14 ± 0.51
TTTTTCTTTCTATTTATCAATATTAAAAAAAAAAAA [CACACA_negctrl_site1629] | 7.8 ± 0.5
TTTTTATAATGATACATATATTATTTTATTCTTAAT [CACACA_negctrl_site124] | 7.37 ± 0.59
TATACATGTATATATTGTACATATGTTTTTTTTACA [XGTACX_site3300] | 7.69 ± 0.61
TTTTTTCAAATTTTCTTTTTTCTTTTGTTTTTTTTG [CACACA_negctrl_site380] | 7.29 ± 0.5
